Experimental data as given in PMC6212790.
The other results are listed elsewhere or left out. At the low end of the ranking the order means little.

What follows are sequences tested against T1, GST-Rok (full length) (UniProt O34857) (assay: protein binding microarray). Conditions: Rok is a gene silencer of Bacillus subtilis; high values mean tight binding; most listed sequences are background and not binding sites; double strand, one strand shown.
T1 sequence: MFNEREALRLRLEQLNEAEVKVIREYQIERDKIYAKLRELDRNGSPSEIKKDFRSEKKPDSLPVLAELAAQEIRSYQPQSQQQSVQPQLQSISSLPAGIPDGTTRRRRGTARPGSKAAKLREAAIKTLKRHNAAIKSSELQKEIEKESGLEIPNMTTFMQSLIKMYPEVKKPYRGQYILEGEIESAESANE
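Note: rank score from −0.5 (least bound) to 0.5 (best bound).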

| Sequence | binding signal |
| --- | --- |
| AGGAGCAG | -0.336 E-score |
| ACTAGACC | -0.00464 E-score |
| CGTTCTCC | -0.177 E-score |
| ACTGATCT | 0.00895 E-score |
| CAACGTAG | 0.239 E-score |
| AGAAATCA | 0.14 E-score |
| ACGGCGAA | -0.116 E-score |
| ACGTACCA | 0.24 E-score |
| ATGTCAAC | 0.143 E-score |
| TCACTCAA | 0.112 E-score |
| AGAGGGAC | -0.32 E-score |
| CAGACGTC | -0.0654 E-score |
| CCTGCATA | 0.0724 E-score |
| ATACAACG | 0.167 E-score |
| CAATCAAC | 0.0637 E-score |
| GACTTCAA | -0.152 E-score |
| AGCCCTAG | -0.224 E-score |
| GTCTTCAA | 0.00975 E-score |
| ATATCTTG | 0.208 E-score |
| AGCTACCA | 0.358 E-score |
| GGATCACC | -0.00151 E-score |
| CCTTGTGA | -0.0497 E-score |
| CTAAACCA | 0.189 E-score |
| CTAACAAG | 0.0913 E-score |
| TCCATCGA | -0.0553 E-score |

| Sequence | binding signal |
| --- | --- |
| CTACTCAA | 0.0993 E-score |
| GCCTTTGA | -0.246 E-score |
| CCGTATGC | -0.123 E-score |
| CCTTATGA | 0.0154 E-score |
| TGCCGACA | -0.103 E-score |
| CAGGATAG | 0.0861 E-score |
| ATGTACCG | 0.264 E-score |
| CATGTTTA | 0.0387 E-score |
| AGACGATA | 0.0523 E-score |
| ACCCTCCG | -0.334 E-score |
| CAGTGGCA | -0.175 E-score |
| TCTTTAAA | -0.0267 E-score |
| AATGGTCG | -0.163 E-score |
| GAGGCCTC | -0.266 E-score |
| AGTCAAAG | -0.00276 E-score |
| CCGGAGGA | -0.241 E-score |
| CCGAGCAG | -0.222 E-score |
| GTGATCAA | -0.0698 E-score |
| AGTACCAA | 0.128 E-score |
| AGAGCACA | -0.114 E-score |
| GAAATATA | 0.283 E-score |
| ACACTGAC | -0.134 E-score |
| AGTCTCCA | 0.00349 E-score |
| AGTGCTTC | -0.236 E-score |
| TAACCCAA | 0.0896 E-score |

| Sequence | binding signal |
| --- | --- |
| GAAGACCA | -0.161 E-score |
| CGCTGAGC | -0.0254 E-score |
| GGCTCACA | -0.237 E-score |
| GACTCGAC | -0.132 E-score |
| CGCTTACA | -0.243 E-score |
| ATGTAATA | 0.307 E-score |
| GCCATCAC | -0.262 E-score |
| AGCGTAAT | 0.172 E-score |
| ACGAGCGT | -0.179 E-score |
| CGTTCGTC | -0.173 E-score |
| AGATGACT | -0.00444 E-score |
| CACGGAAC | 0.0407 E-score |
| ATTGTGTA | 0.316 E-score |
| ATAGCTAA | 0.311 E-score |
| GAAGTTCA | -0.0166 E-score |
| GTCGGCTA | -0.0796 E-score |
| GGCGCCCA | -0.269 E-score |
| AGGAGGTG | -0.166 E-score |
| ACGTGTGG | -0.0706 E-score |
| CACTTCCA | -0.0147 E-score |
| CCCGGTAG | -0.134 E-score |
| CGCCCCCC | -0.479 E-score |
| TCCAGACA | -0.183 E-score |
| TCTTTTCA | -0.174 E-score |
| TATCTAGA | 0.213 E-score |

| Sequence | binding signal |
| --- | --- |
| AACCTAAA | 0.102 E-score |
| ATTCTTAA | 0.0471 E-score |
| GCCAGAAC | -0.0634 E-score |
| CGAAGTAA | 0.078 E-score |
| CACCAAGG | -0.213 E-score |
| CCACCTAA | -0.104 E-score |
| CCCAGGGC | -0.309 E-score |
| ACCTGAAT | 0.192 E-score |
| TGTCACAA | -0.157 E-score |
| CACGGGTC | -0.19 E-score |
| GATTCTAA | 0.134 E-score |
| CAGCTGTC | -0.0667 E-score |
| GACCGCGC | -0.208 E-score |
| AGGTGTAA | 0.18 E-score |
| AGTAGTCG | 0.0651 E-score |
| AATCGACA | 0.0867 E-score |
| GGGGCGGA | -0.319 E-score |
| CATGTCAC | -0.024 E-score |
| CGGTCCGA | -0.123 E-score |
| AACTATGC | 0.0628 E-score |
| CGTCCATA | -0.0426 E-score |
| ACAGGGCT | -0.141 E-score |
| CCCGCGCC | -0.36 E-score |
| GTCTTATA | 0.253 E-score |
| GGCATACA | 0.218 E-score |

| Sequence | binding signal |
| --- | --- |
| ACTTCGCT | 0.187 E-score |
| AGAAGAAC | 0.098 E-score |
| AGTCGCAT | -0.0319 E-score |
| GCCCCGTA | -0.197 E-score |
| CCCCTATA | -0.146 E-score |
| CTCCAGGC | -0.327 E-score |
| CAGCGGCA | -0.307 E-score |
| AGTCTGCA | -0.0272 E-score |
| AAGAACTA | 0.197 E-score |
| ATTTAATG | 0.143 E-score |
| AATTCGGC | 0.0891 E-score |
| AAGAGGAT | 0.0284 E-score |
| CGCAGGGA | -0.187 E-score |
| AACCGCCG | -0.186 E-score |
| ATGGCTTC | -0.248 E-score |
| TCAGAGCA | -0.24 E-score |
| GATCCTGA | -0.144 E-score |
| GATCTAGA | 0.119 E-score |
| GCCCTCAA | -0.229 E-score |
| ATCTTCAT | 0.0559 E-score |
| CAGAGACA | -0.183 E-score |
| AAACAACT | 0.199 E-score |
| AAAACATC | 0.104 E-score |
| CCTAATCA | 0.0328 E-score |
| AAACGTTA | 0.165 E-score |

| Sequence | binding signal |
| --- | --- |
| CCATCACA | -0.187 E-score |
| GACAGCCC | -0.245 E-score |
| AAGGTCTA | 0.016 E-score |
| ATACATGG | 0.113 E-score |
| GTGCGCAA | -0.0818 E-score |
| CTCATGCA | -0.0636 E-score |
| CCGACGCA | -0.198 E-score |
| GCCGTACA | -0.0477 E-score |
| CGTCCCCA | -0.37 E-score |
| AAGCTGAC | -0.177 E-score |
| CAACATCA | -0.166 E-score |
| GCAGGTAA | -0.0217 E-score |
| AATCTTGT | 0.131 E-score |
| CCAACCTA | 0.0696 E-score |
| GGTTTAAC | -0.00178 E-score |
| CAGGGACG | -0.28 E-score |
| GCTCTAGA | -0.192 E-score |
| AATTACAA | 0.217 E-score |
| GTACACAA | 0.277 E-score |
| AGAGTGAG | -0.191 E-score |
| ACAGGAAG | -0.0751 E-score |
| CCCTGTGA | -0.45 E-score |
| ATCAAAAC | 0.0166 E-score |
| TGACACAA | -0.00668 E-score |
| CATAGCCG | -0.0675 E-score |

| Sequence | binding signal |
| --- | --- |
| CTCTGCGA | -0.0061 E-score |
| GGCAGAGA | -0.13 E-score |
| AGGATTCG | 0.00923 E-score |
| CGCGAATC | -0.171 E-score |
| GTAGGAAA | 0.293 E-score |
| GTTCCTTA | -0.0408 E-score |
| GCCATCAA | -0.128 E-score |
| TGATTGCA | 0.106 E-score |
| ATTACCAG | 0.228 E-score |
| AAATAGCA | 0.0964 E-score |
| ACGACTAG | 0.0443 E-score |
| CCGCAAAA | -0.154 E-score |
| CTCGGAAA | 0.182 E-score |
| AGGTCCCC | -0.373 E-score |
| ACTACCGG | 0.145 E-score |
| GTTTCAAA | -0.128 E-score |
| ATCGCTTC | 0.025 E-score |
| TCTTACAA | -0.0213 E-score |
| ATGTACGG | 0.149 E-score |
| ATCCGCAT | 0.0829 E-score |
| AACACCTA | 0.167 E-score |
| AGATGAGA | -0.0539 E-score |
